Consider 44 sequences from the supplement of paper PMC11417369.

The other results are listed elsewhere or left out.

For this assay, the system named is PfSIP2 AP2 domain 1 (GST-tagged). As to the kind of experiment: gcPBM binding intensity (ln(normalized median fluorescence intensity)); higher = stronger DNA binding. In a few lines: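 The highest Masliner-normalised natural-log median intensity across replicate spots of either probe orientation is reported as binding intensity. GST-tagged P. falciparum DNA-binding domains expressed in E. coli were applied for 1 h to an Agilent 4 × 180k array of primer-extended double-stranded 36-bp intergenic genomic probes plus negative controls, and bound protein was detected with Alexa488 anti-GST antibody and scanned at 488 nm.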
Turning to “TGAATTTAGATATATACACACAAAAGTAAATACAAT [CACACA_site5548]”, the “gcPBM binding intensity (ln)” value was 7.03.
The figure for “TTTAAATATATTCAATCACACACATTCGTTTTTTTT [CACACA_site7962]” is 6.9.
On to “AATATATACATACATACATGCATACATATATATAAC [TGCATGCA_site371]”, for which the “gcPBM binding intensity (ln)” value turned out to be 7.28.
The figure for “AGTAGTCTGGAGAAAAGTACACAGTATCTGGTAACC [XGTACX_site2035]” is 7.17.
With “GAATATTAAACAAACACACACACATATATATATATA [CACACA_site3382]”, the “gcPBM binding intensity (ln)” value came out at 9.4.
The figure for “GTTTATTGATTTATTTGTACTTATATATATATTTCA [XGTACX_site5098]” is 7.34.
As for “GTATAAAAATTATATACACACAACAGAATTACATAT [CACACA_site133]”, the “gcPBM binding intensity (ln)” value worked out at 7.03.
“AAGGATATGAAAAGTAGTACAAAATTTAGAACACCC [XGTACX_site4758]”: the “gcPBM binding intensity (ln)” value came out at 7.37.
The figure for “TTACGATTAAATATAACACACAACATATTTTTAATA [CACACA_site2967]” is 6.98.
On to “ATTATATTCTCCTTCACACACAAAAATATTTCATCA [CACACA_site5326]”, for which the “gcPBM binding intensity (ln)” value was determined as 7.18.
Turning to “CACAAAAATTTATACACACACATATATAATATATAT [CACACA_site152]”, the “gcPBM binding intensity (ln)” value worked out at 7.35.
For “AAGTATTACAACCACACACACACCTATATATCATAG [CACACA_site7878]”, the “gcPBM binding intensity (ln)” value worked out at 7.08.
With “ATCTTTTACGAATACACACACATAAAGAAAAAAAAA [CACACA_site1331]”, the “gcPBM binding intensity (ln)” value came to 7.34.
As to “ATTTCAAATTAATTTACACACTTCATACTAAAAGAC [CACACA_site3176]”, the “gcPBM binding intensity (ln)” value stood at 7.6.
The figure for “TTGATATATAATAATACACACTTACATAATTAATTA [CACACA_site4320]” is 6.88; for “TCCTACATATAAAAATGTACCCATTGTTTTTTTTTT [XGTACX_site7205]” it is 6.84; for “TATATATATATATATACACACATATACATATTGTTT [CACACA_site3499]” it is 9.71.
On to “TTGTGTTAACTACCATGTACTTATACATCATAGGAA [XGTACX_site6627]”, for which the “gcPBM binding intensity (ln)” value was found to be 6.98.
The figure for “AATGTATATAGAAACATGCACACGTGGTTGTATATA [CACACA_site3278]” is 7.29; for “TTTTTGTATGCTTCCCGATTACATTATGTTGTAAAT [CACACA_negctrl_site227]” it is 7.06.
The figure for “ATTTATGTTATATATACACACACAAAAGAAAAAAAA [CACACA_site8977]” is 7.05.
The figure for “ATACATATAAAAAAGTGTACATATTAAAATAAGTAT [XGTACX_site1310]” is 6.99; for “TTTTTTATAAATCAAATGAAAAATAAACTATTCAGA [CACACA_negctrl_site1568]” it is 6.59; for “ATATCCGTTCAAAGATGTACATATATATTCTATAGA [XGTACX_site5354]” it is 7.29.
On to “AATGCAAATAATAAAACACACAAAAAAAAGAAAAAA [CACACA_site1184]”, for which the “gcPBM binding intensity (ln)” value is 6.62.
The figure for “TCATACAAACCTATTTGTACATAAGTATAATATATA [XGTACX_site4284]” is 6.96; for “TATTGCCCTGGACACACACACATATATATATATATA [CACACA_site5389]” it is 9.4.
The figure for “ATAATATAAACATACACACACACATCTATATTTATA [CACACA_site7381]” is 7.08; for “TTATGTTATATAAAAAGTACAAATTTTTTTTAATTA [XGTACX_site3435]” it is 6.97; for “ATTATTATTATATATGCATGTAAAATATTAAAGTAC [TGCATGCA_site914]” it is 7.59.
The figure for “TTTCTTTCTATTGTTATATTTATAATAATTATAATT [XGTACX_negctrl_site215]” is 7.09; for “TGTTTAAGTGTTTTTAGTACTTATAAAAATATTATC [XGTACX_site7379]” it is 6.98.
As for “TATAAAATTACATTTTGTCATTTATTTTTTCCCACT [TGCATGCA_negctrl_site110]”, the “gcPBM binding intensity (ln)” value came to 6.85.
The figure for “ATATTATCCCTATTTGCACACAAGAGTAATTTTTTA [CACACA_site3908]” is 7.42; for TTTCTAATATATAAAGTGCAATACCATTCAGAGTTA it is 7.28.
Turning to “ATTGTCTTTTAATAGTGTACTTATTTTAAATATTGC [XGTACX_site8517]”, the “gcPBM binding intensity (ln)” value amounted to 7.17.
Consider “TTTTATAGAGTGTATACATGCAATACCACATAAAAT [TGCATGCA_site476]”, for which the “gcPBM binding intensity (ln)” value stood at 7.12.
The figure for “ATATGGAAGAATTAAAGTACTTAAAAAAATGTCAGT [XGTACX_site6837]” is 7.48.
The figure for “AAGAAAATAAAATAAAATAAAATAAAATAAAAATAT [TGCATGCA_negctrl_site493]” is 6.77; for TATAATTTATAAGTAGTGCATTTCTTTTCATTTTTA it is 9.07.
Consider “TGATGATATAAAAACACACACATATAACATAATACT [CACACA_site6687]”, for which the “gcPBM binding intensity (ln)” value worked out at 7.04.
In the case of “TTATTATATATAAGTAGTACAAACAATTAAGAGATA [XGTACX_site4009]”, the “gcPBM binding intensity (ln)” value was found to be 7.27.
Take “TTTTTTTTTTTTAATACACACATATATATATTTATT [CACACA_site3994]”: the “gcPBM binding intensity (ln)” value worked out at 6.97.
The figure for “GTAAAAAAAAAAAAATGTACACATATATATAATATA [XGTACX_site159]” is 6.91.
